# Several values for one entry are separate records, joined by “and”; a condition that tells them apart may be missing. Equal values may be shown once. The shares of active, inactive and inconclusive entries below differ from those in the screen. Where the call is inconclusive, the potency comes from a doubtful curve fit. Activity calls are given as the source filed them. Unless noted, the call rests on the fitted dose curve; in most records, active means well fitted curve in the direction sought with a large enough effect in the repeat runs; inconclusive means weak or mixed curves; inactive means no such curve, though single readings can be large; an effect the other way counts as inactive or inconclusive.
# Columns and labels:
# [1] = qHTS assay to identify small molecule antagonists of the vitamin D receptor (VDR) signaling pathway - cell viability counter screen (AID 743225); conditions: VDR-bla HEK293T viability, CellTiter-Glo luminescence, 16 h; viability change, negative = cytotoxic: at 61 µM (top of the series) unless noted; further: nearly all actives have a fitted effect of over 50% in size
# Procedure, shortened: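 Read-out: CellTiter-Glo luminescence measured 30 min after reagent addition at room temperature. Cells were VDR-bla HEK 293T exposed 16 h at 37C, 5% CO2, to compound with 3 nM final calcitriol agonist.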
# [2] = qHTS assay to identify small molecule agonists of the NFkB signaling pathway (AID 1159509; active means well fitted curve in the direction sought with a large enough effect in the signal ratio in the repeat runs, not every such curve was filed as active; inconclusive means weak or mixed curves, or a change in a side signal; inactive means no such curve, though single readings can be large or run the other way; the % refers to the signal ratio; on activation: on the % scale 0 is the no-effect control and ±100 the full control effect); conditions: NFkB-bla ME-180 cells, beta-lactamase FRET ratio, 5 h; activation: at 61 µM (top of the series) unless noted
# Procedure, shortened: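 Agonist activity was read as beta-lactamase-driven FRET change (460 and 530 nm emission, 405 nm excitation) following 1.5 hr substrate loading at room temperature. Beforehand, ME-180 NFkB-bla reporter cells were treated with compounds for 5 hr at 37 C.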
# [3] = qHTS assay to identify small molecule agonists of the endoplasmic reticulum stress response signaling pathway (AID 1159516; active means well fitted activation curve with a large enough effect in the signal ratio in the repeat runs, not every such curve was filed as active; inconclusive means weak or mixed curves, or effect the other way; the % refers to the signal ratio; on activation: on the % scale 0 is the no-effect control and ±100 the full control effect); conditions: ESRE-bla HeLa, ER stress beta-lactamase reporter, 5 h; activation: at 61 µM (top of the series) unless noted
# Procedure, shortened: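 HeLa ESRE-bla reporter line; cpd 5 h, 37 C/5% CO2; LiveBLAzer B/G FRET substrate 2 h RT; ex 405, em 460/530 nm.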
# [4] = qHTS assay to identify small molecule antagonists of the retinoid-related orphan receptor gamma (ROR-gamma) signaling pathway - cell viability counter screen (AID 1159520); further: nearly all actives have a fitted effect of over 50% in size
# Procedure, shortened: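 Tet-on ROR gamma CHO cells were given compounds for 2 hr, then doxycycline hyclate at 1 uM final, and incubated 16 hr at 37 C. Viability was measured as ATP content by CellTiter-Glo luminescence.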
# [5] = qHTS assay to identify small molecule agonists of the endoplasmic reticulum stress response signaling pathway - cell viability counter screen (AID 1159517; calls by dose curve; further: nearly all actives have a fitted effect of over 50% in size)
# Procedure, shortened: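 In parallel with the ESRE reporter read, cytotoxicity was scored by CellTiter-Glo luminescence (30 min, room temperature) on HeLa ESRE-bla cells dosed for 5 hr.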
# [6] = qHTS assay to identify small molecule agonists of the AP-1 signaling pathway - cell viability counter screen (AID 1159525; calls by dose curve; further: nearly all actives have a fitted effect of over 55% in size)
# Procedure, shortened: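 Same-well cytotoxicity counter screen of the Tox21 10K library in ME-180 cells. The readout is ATP-dependent luminescence after 5 h compound treatment. Data are normalised to DMSO and tetra n-octyl ammonium bromide controls.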
# [7] = qHTS assay to identify small molecule agonists of the AP-1 signaling pathway (AID 1159526; calls by dose curve; on activation: on the % scale 0 is the no-effect control and ±100 the full control effect); conditions: ME-180 (cervical carcinoma) AP-1-bla reporter, beta-lactamase FRET ratio, 5 h; activation: at 76.8 µM (top of the series) unless noted
# [8] = qHTS assay to identify small molecule agonists of the vitamin D receptor (VDR) signaling pathway - cell viability counter screen (AID 743224); conditions: VDR-bla HEK293T viability, CellTiter-Glo luminescence, 16 h; activity change, negative = cytotoxicity: at 62.6 µM (top of the series); further: nearly all actives have a fitted effect of over 50% in size; on activity change, negative = cytotoxicity: on the % scale 0 is the no-effect control and ±100 the full control effect
# Procedure, shortened: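 Cytotoxicity counter screen: VDR-bla cells, 16 h compound exposure at 37C, 5% CO2; CellTiter-Glo luminescence, 30 min RT, same wells as bla read.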
# [9] = target: Nuclear receptor ROR-gamma (Homo sapiens) (UniProt P51449); test: qHTS assay to identify small molecule antagonists of the retinoid-related orphan receptor gamma (ROR-gamma) signaling pathway (AID 1159521; further: nearly all actives have a fitted effect of over 50% in size)
# Procedure, shortened: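 CHO Tet-on RORγ, RORE-luc reporter. Cpd 2 h pre-incubation, then dox hyclate 1 uM final, 16 h, 37 C/5% CO2. ONE-Glo luminescence; decrease = antagonist.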
# Potency means the concentration at half of the fitted maximal effect; tags describe the fitted curve by direction and shape or compound fluorescence and quenching.
structure (smiles),measurement,setting,value
CC(C)(C)c1cc(O)c(C(C)(C)C)cc1O,Potency,[1],"inconclusive: 11 µM [rising, partial curve, poor fit]"
same,Potency,[2],"inconclusive: 49 µM [falling, single point]"
same,Potency,[3],active: 5.49 µM
same,Potency,[4],active: 48.6 µM
c1ccc2c(c1)Oc1ccccc1S2,Potency,[2],"inconclusive: 54.9 µM [falling, single point]"
same,activation,[3],inconclusive: 14.1% [at 78.8 µM]
same,Potency,[5],"inconclusive: 62.7 µM [cytotoxic, single point]"
same,Potency,[6],"inconclusive: 54.9 µM [cytotoxic, single point]"
same,Potency,[7],inconclusive: 55.8 µM and inconclusive: 54.9 µM
CCN(CC)C(=O)N1CCN(C)CC1,Potency,[8],inactive
same,Potency,[2],inactive
same,Potency,[3],"inconclusive: 2.13 µM [falling, single point]"
same,Potency,[4],inactive
COc1cc2nc(N3CCN(C(=O)c4ccco4)CC3)nc(N)c2cc1OC,activation,[2],inconclusive: 5.31% [at 28.5 µM]
same,Potency,[3],inactive
same,Potency,[4],"inconclusive: 16.4 µM [cytotoxic, partial curve, poor fit]"
same,Potency,[9],"inconclusive: 16.4 µM [inhibitor, single point]"
COc1ccc(C(=O)/C(Br)=C\C(=O)O)cc1,Potency,[1],"inconclusive: 17.4 µM [cytotoxic, full curve, poor fit]"
same,Potency,[2],"inconclusive: 61.6 µM [falling, single point]"
same,Potency,[3],"inconclusive: 0.0031 µM [rising, full curve, poor fit]"
same,Potency,[4],active: 48.6 µM
same,Potency,[7],"inconclusive: 12.3 µM [falling, partial curve, poor fit]"
C=CC(=O)OCCOCCOC(=O)C=C,Potency,[8],"inconclusive: 39.1 µM [cytotoxic, partial curve]"
same,Potency,[1],"inconclusive: 55.2 µM [cytotoxic, single point]"
same,Potency,[2],"inconclusive: 49.2 µM [falling, partial curve]"
same,Potency,[3],inactive
same,Potency,[4],active: 13.7 µM
same,Potency,[6],"inconclusive: 49.2 µM [rising, partial curve]"
same,Potency,[7],"inconclusive: 9.82 µM [falling, full curve]"
COC(=O)C1=C(C)NC(C)=C(C(=O)OCCN(C)Cc2ccccc2)C1c1cccc([N+](=O)[O-])c1 (stereo not drawn),Potency,[8],"inconclusive: 33.5 µM [cytotoxic, single point]"
same,Potency,[1],"inconclusive: 54.6 µM [cytotoxic, single point] and inconclusive: 26.8 µM [cytotoxic]"
same,Potency,[2],"inconclusive: 61.3 µM [falling, single point]"
same,activation,[3],inconclusive: -5.98%
same,Potency,[4],inconclusive: 33.5 µM [cytotoxic]
same,Potency,[7],"inconclusive: 54.6 µM [cytotoxic, single point]"
same,activation,[7],inconclusive: -4.81% [at 35.3 µM]
CCCC(=O)OC[C@@H](OC(=O)CCC)[C@@H](OC(=O)CCC)[C@H](Cn1c2nc(=O)[nH]c(=O)c-2nc2cc(C)c(C)cc21)OC(=O)CCC,Potency,[2],"inconclusive: 9.52 µM [rising, partial curve]"
same,Potency,[3],"inconclusive: 12 µM [rising, partial curve]"
same,Potency,[5],"inconclusive: 16.9 µM [cytotoxic, partial curve, poor fit]"
same,Potency,[9],"inconclusive: 33.5 µM [inhibitor, single point]"
same,activation,[7],inconclusive: -0.105% [at 35.3 µM]
C=C(C)C(=O)OCC(O)COc1ccc(C(C)(C)c2ccc(OCC(O)COC(=O)C(=C)C)cc2)cc1 (stereo not drawn),Potency,[2],"inconclusive: 43.6 µM [falling, partial curve]"
same,activation,[3],inconclusive: 7.85%
same,Potency,[4],"inconclusive: 38.6 µM [cytotoxic, partial curve, poor fit]"
same,Potency,[7],"inconclusive: 43.6 µM [falling, partial curve]"
Nc1nc2ccccc2n1Cc1ccc(F)cc1,Potency,[2],"inconclusive: 9.52 µM [falling, partial curve]"
same,Potency,[3],"inconclusive: 10.7 µM [falling, partial curve]"
same,Potency,[4],"inconclusive: 26.6 µM [cytotoxic, partial curve, poor fit]"
same,Potency,[6],inactive
same,Potency,[7],"inconclusive: 19 µM [falling, partial curve]"
CC1=CC2C3CC(C=C3C)C2C1 (stereo not drawn),Potency,[2],"inconclusive: 49 µM [rising, partial curve]"
same,activation,[3],inconclusive: -6.14%
same,Potency,[5],"inconclusive: 43.6 µM [cytotoxic, partial curve, poor fit]"
same,Potency,[7],inactive
c1cc(C(c2ccc(OCC3CO3)cc2)c2ccc(OCC3CO3)cc2)ccc1OCC1CO1 (stereo not drawn),Potency,[1],"inconclusive: 49 µM [cytotoxic, partial curve, poor fit]"
same,Potency,[2],"inconclusive: 13.8 µM [rising, partial curve, poor fit]"
same,Potency,[3],"inconclusive: 12.3 µM [rising, full curve]"
same,Potency,[4],"inconclusive: 61.1 µM [cytotoxic, partial curve, poor fit]"
same,Potency,[9],"inconclusive: 77 µM [inhibitor, single point]"
same,activation,[7],inconclusive: -11.5%
CC1(C)CCC(C)(C)c2cc(C(=O)Nc3ccc(C(=O)O)cc3)ccc21,Potency,[8],"inconclusive: 61.6 µM [cytotoxic, single point]"
same,Potency,[2],"inconclusive: 6.92 µM [falling, partial curve, poor fit]"
same,activation,[3],inconclusive: -11.8%
same,Potency,[5],"inconclusive: 54.9 µM [cytotoxic, single point]"
same,Potency,[4],"inconclusive: 68.6 µM [cytotoxic, single point]"
Cc1cc(=O)oc2cc(N(C)C)ccc12,Potency,[2],"inconclusive: 38.9 µM [fluorescent, partial curve]"
same,Potency,[3],"inconclusive: 43.6 µM [fluorescent, partial curve, poor fit]"
same,Potency,[5],inactive
same,Potency,[7],inconclusive: 43.6 µM [activator]
CNc1c2c(nn1C)CCCC2,Potency,[2],inactive
same,Potency,[3],"inconclusive: 10.7 µM [rising, single point]"
same,Potency,[4],inactive
C/C(=C(/OCCOc1ccc(Cl)cc1)c1ccc(Cl)cc1Cl)n1ccnc1,Potency,[2],"inconclusive: 23.9 µM [falling, partial curve]"
same,Potency,[3],"inconclusive: 12 µM [falling, partial curve]"
same,Potency,[5],"inconclusive: 4.25 µM [rising, full curve, poor fit]"
same,Potency,[9],"inconclusive: 37.6 µM [inhibitor, single point]"
same,Potency,[7],inconclusive: 23.9 µM [partial curve]
Cc1[nH]c(=O)c(C#N)cc1-c1ccncc1,Potency,[1],"inconclusive: 0.0977 µM [cytotoxic, partial curve]"
same,Potency,[2],"inconclusive: 0.0044 µM [rising, full curve, poor fit]"
same,Potency,[3],"inconclusive: 0.049 µM [falling, full curve, poor fit]"
same,Potency,[5],"inconclusive: 21.9 µM [cytotoxic, partial curve, poor fit]"
same,Potency,[6],"inconclusive: 34.7 µM [cytotoxic, partial curve, poor fit]"
CCCCOc1ccc(CC(=O)NO)cc1,Potency,[2],"inconclusive: 21.3 µM [falling, partial curve, poor fit]"
same,Potency,[3],inactive
same,Potency,[4],inactive
CCCCCOc1ccccc1/C(=C\SC)n1ccnc1,Potency,[2],"inconclusive: 16.9 µM [falling, partial curve]"
same,Potency,[3],"inconclusive: 12 µM [partial curve, poor fit]"
same,Potency,[4],"inconclusive: 23.7 µM [cytotoxic, partial curve, poor fit]"
same,Potency,[7],inconclusive: 7.56 µM
[Cl][Au]([Cl])[Cl],Potency,[1],active: 11 µM
same,Potency,[2],"inconclusive: 3.89 µM [falling, full curve]"
same,Potency,[3],"inconclusive: 54.9 µM [cytotoxic, single point]"
same,Potency,[4],"inconclusive: 4.33 µM [cytotoxic, full curve]"
same,Potency,[9],active: 5.45 µM
same,Potency,[7],"inconclusive: 1.38 µM [falling, full curve]"
CO[Si](CCCNc1ccccc1)(OC)OC,Potency,[2],"inconclusive: 54.9 µM [falling, partial curve]"
same,Potency,[3],"inconclusive: 38.9 µM [cytotoxic, partial curve]"
same,Potency,[4],"inconclusive: 43.3 µM [cytotoxic, partial curve]"
same,Potency,[7],"inconclusive: 43.6 µM [falling, partial curve, poor fit]"
CCCCCCCCCCCCCCCC(=O)OC[C@H](O)[C@H]1OC(=O)C(O)=C1O,Potency,[2],"inconclusive: 61.6 µM [falling, single point]"
same,Potency,[3],"inconclusive: 30.9 µM [rising, partial curve]"
same,Potency,[5],"inconclusive: 54.9 µM [cytotoxic, single point]"
same,Potency,[6],"inconclusive: 54.9 µM [cytotoxic, single point]"
same,Potency,[7],"inconclusive: 43.6 µM [falling, partial curve, poor fit]"
COC1CCC=CO1 (stereo not drawn),Potency,[2],inactive
same,Potency,[3],inconclusive: 62.1 µM
same,Potency,[5],active: 55.3 µM
same,Potency,[6],inactive
O=C(O)Cc1cccc2ccccc12,Potency,[1],"inconclusive: 0.0436 µM [rising, full curve, poor fit]"
same,activation,[2],inconclusive: 4.6%
same,Potency,[3],"inconclusive: 0.692 µM [rising, full curve, poor fit]"
same,Potency,[4],"inconclusive: 0.0027 µM [rising, full curve, poor fit]"
same,activation,[7],inconclusive: 8.27%
CCC(Cl)C(Cl)C(Cl)CC(Cl)C(Cl)C(C)Cl (stereo not drawn),Potency,[1],"inconclusive: 38.9 µM [cytotoxic, partial curve, poor fit]"
same,Potency,[2],"inconclusive: 61.6 µM [falling, single point]"
same,Potency,[3],"inconclusive: 11 µM [falling, partial curve, poor fit]"
same,Potency,[4],"inconclusive: 68.6 µM [cytotoxic, partial curve, poor fit]"
same,Potency,[7],inactive
